Test results taken from PubChem BioAssay AID488969 (Vanderbilt High Throughput Screening Facility, 2010).
The full ranking holds about 110,000 compounds; the median of “z-score” is about -0.1, and the highest 2% start at about 2. Some of the results follow. Activity calls are given as the source filed them.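 Rule for the calls: active = z-score in the third read window above 3 or below -3; inactive = the rest.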

What follows are molecules tested against Metabotropic glutamate receptor 8 (Rattus norvegicus) (UniProt P70579) (assay: rat mGluR8 modulators via GIRK flux, primary screen, cell-based, thallium flux, HTS (AID 488969)). Conditions: HEK293 rat mGluR8, GIRK (G protein-gated inwardly rectifying potassium channel) thallium flux, FluoZin2; at 10 µM; stronger effect = higher value; submaximal glutamate (EC20) added with thallium.
UniProt P70579, sequence (P70579 whole entry, looked up): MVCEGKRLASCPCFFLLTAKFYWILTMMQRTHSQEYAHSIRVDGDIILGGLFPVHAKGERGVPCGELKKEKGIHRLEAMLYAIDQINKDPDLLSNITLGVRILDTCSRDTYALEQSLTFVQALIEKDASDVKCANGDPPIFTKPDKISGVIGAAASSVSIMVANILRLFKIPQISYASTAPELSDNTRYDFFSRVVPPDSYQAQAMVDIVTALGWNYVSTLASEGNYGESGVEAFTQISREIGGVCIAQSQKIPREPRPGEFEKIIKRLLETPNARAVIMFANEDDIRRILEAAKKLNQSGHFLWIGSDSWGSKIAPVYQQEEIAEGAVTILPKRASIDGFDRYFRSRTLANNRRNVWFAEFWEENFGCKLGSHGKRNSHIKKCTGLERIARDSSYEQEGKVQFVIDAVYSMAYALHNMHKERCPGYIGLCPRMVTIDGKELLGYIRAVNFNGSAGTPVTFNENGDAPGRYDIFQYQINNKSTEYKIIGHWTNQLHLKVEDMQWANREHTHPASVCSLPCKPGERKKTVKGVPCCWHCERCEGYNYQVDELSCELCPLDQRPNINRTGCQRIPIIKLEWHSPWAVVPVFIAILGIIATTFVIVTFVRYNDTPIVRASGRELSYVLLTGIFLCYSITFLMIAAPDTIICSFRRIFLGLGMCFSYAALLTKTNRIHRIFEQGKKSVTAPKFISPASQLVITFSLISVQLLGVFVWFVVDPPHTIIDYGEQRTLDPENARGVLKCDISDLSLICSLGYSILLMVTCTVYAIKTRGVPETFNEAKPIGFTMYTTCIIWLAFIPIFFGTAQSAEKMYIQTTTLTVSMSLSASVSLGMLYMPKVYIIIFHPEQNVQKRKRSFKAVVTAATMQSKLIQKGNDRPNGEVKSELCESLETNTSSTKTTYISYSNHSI
O=C(CCCc1nc(-c2ccc(Cl)cc2)no1)N1CCOCC1 was tested, and the z-score was active: 3.9. In the case of CC(=O)NC(Cc1ccccc1)C(=O)OCC(=O)c1ccc(Cl)cc1 (centres undefined), the z-score is reported as -0.205. In the case of COc1ccccc1N(CC(=O)Nc1ccc(S(=O)(=O)N2CCCCC2)cc1)S(C)(=O)=O, the z-score is reported as -0.0266. Molecule CCCCC(=O)Nc1ccc(C(N)=O)cc1 has a z-score of -0.235. COc1ccccc1NC(=O)CSc1nnc(CNC(=O)COc2ccc(Cl)cc2)o1 gave a z-score of -0.884. For N#CC(C#N)=Cc1ccc(OC(=O)c2ccccn2)cc1, the z-score was -0.325. O=C(c1cccc(S(=O)(=O)NCCOc2ccccc2)c1)N1CCN(c2ncccn2)CC1 gave a z-score of 0.21. Work on CCOCCOC(=O)CCSc1n[nH]c(=O)[nH]c1=O yielded a z-score of 0.0131. Cc1ccc(CN(C(=O)c2csnn2)C(C(=O)NC2CCCC2)c2ccc(C)o2)cc1 (centres undefined) was tested, and the z-score was -1.08. Cc1ccc(CSC2=NCCN2C(=O)c2ccco2)cc1 gave a z-score of -0.483. N#CC1=C(N)SC(N)=C(C#N)C1c1cccc(O)c1 was tested, and the z-score was -0.387. With O=C(Nc1c(C(=O)O)[nH]c2ccccc12)NC1CCCCC1 the z-score was 0.458. Molecule O=C(CN1C(=O)CSC1=O)Nc1ccc2c(c1)OCCO2 has a z-score of 0.229. CC(C)OC(=O)c1ccc(OC(=O)c2cccnc2)cc1 was tested, and the z-score was -0.0201. Molecule O=C1/C(=C/c2cccs2)SC(=S)N1c1ccccc1 has a z-score of -0.00319. Work on O=C1CCC(=O)N1OCCCOc1ccc(Br)cc1Cl yielded a z-score of 0.401. Cn1c(C(=O)N2CCN(Cc3ccc4c(c3)OCO4)CC2)cc2sccc21 showed a z-score of -0.409. O=C(COC(=O)c1cc(S(=O)(=O)N2CCOCC2)c(Cl)cc1Cl)Nc1ncc(C(F)(F)F)cc1Cl gave a z-score of -0.154. Work on Cc1cc(=O)n2nc(N3CCC(C(=O)N4CCN(Cc5ccccc5)CC4)CC3)sc2n1 yielded a z-score of 0.376. Cc1ccc(CNC(=O)NC2CCCCC2)cc1 was tested, and the z-score was 0.118. Molecule O=C(O)c1cccc(N2C(=O)c3cccc(Oc4ccc(Cl)cc4)c3C2=O)c1 has a z-score of -1.41. Molecule CCCc1cc(-c2n[nH]c(C)c2-c2ccc(C(=O)OCC)o2)c(O)cc1O has a z-score of 0.632. In the case of CCOc1ccccc1Oc1coc2cc(O)ccc2c1=O, the z-score is reported as -0.924. COc1cc2c(cc1/C=C1/NC(=O)N(c3ccccc3)C1=O)OCO2 showed a z-score of -0.0749. In the case of Cc1c(C#N)c(N=CN(C)C)c(C(=O)c2ccccc2)n1-c1ccccc1, the z-score is reported as 0.0655. Molecule CC(C)C(=O)Nc1nnc(Cc2ccccc2)s1 has a z-score of -0.0622. Cc1ccc(/C=N\n2c(-c3ccccc3)n[nH]c2=S)s1 showed a z-score of 0.798. With CC(=O)c1cc2c(cc1NS(=O)(=O)c1ccc(C)cc1)OCO2 the z-score was -0.152. COc1ccc(NC(=O)c2cc3n(n2)C(C(F)(F)F)CC(c2ccc4c(c2)OCO4)N3)cc1OC (centres undefined) was tested, and the z-score was -0.545. COc1ccc(-c2nnc3n(CCc4ccccc4)c(=O)c4ccccc4n23)c(OC)c1 gave a z-score of -0.0723. COc1ccc(-n2cnc3cc(NCc4ccccn4)ccc32)cc1 showed a z-score of -0.28. CSc1ccc(/C=N/NC(=O)c2sccc2C)cc1 gave a z-score of -0.312. For CCOC(=O)c1ccc(NC(=O)CSc2nc(C)cc(=O)[nH]2)cc1, the z-score was -0.351. S=C(NCCc1ccccc1)NC1CCCCCC1 showed a z-score of 0.365. Molecule COc1cc(CCC(=O)OCC(=O)Nc2cccc(S(=O)(=O)N(C)C)c2)cc(OC)c1OC has a z-score of -0.287. Molecule Cc1nc2sc(C(c3ccco3)N3CCC4(CC3)OCCO4)c(O)n2n1 (centres undefined) has a z-score of -0.121. For CC1(C)NC(=O)N(CC(O)COc2ccc(-c3ccc(C#N)cc3)cc2)C1=O (centres undefined), the z-score was active: 5.36. Molecule CNS(=O)(=O)c1cccc(C(=O)Nc2cccc(Cl)c2)c1 has a z-score of -0.721. With COc1ccc(C(=O)CSc2nnc(NC(=O)C3CC(=O)N(c4ccccc4)C3)s2)cc1 (centres undefined) the z-score was -0.542. Molecule CCOC(=O)c1cnc2c(OC)cccc2c1N1CCN(c2ccc(OC)cc2)CC1 has a z-score of 0.342. CCOCCCNC(=O)C(c1ccc(C)cc1)N(Cc1ccc2c(c1)OCO2)C(=O)CNC(C)=O (centres undefined) showed a z-score of -0.231. For O=S(=O)(/N=C(/Nc1ccc(F)cc1F)c1ccc(Cl)cc1)c1ccccc1, the z-score was -0.175. CCOC(=O)C1=C(c2ccccc2)OC(N)=C(C#N)C1C1CCCCC1 (centres undefined) showed a z-score of -0.435. CCOC(=O)CC1C(=O)NCCN1C(=O)c1cc2c(=O)n3ccccc3nc2s1 (centres undefined) showed a z-score of -0.533. CC(C)Oc1cccc(C(=O)NC(=S)N2CCN(c3ccc(C(F)(F)F)cc3[N+](=O)[O-])CC2)c1 was tested, and the z-score was active: 6.72. CC(=O)Nc1ccc(N2C(C(C)=O)=NN(c3ccc(Cl)cc3)C2c2sccc2C)cc1 (centres undefined) showed a z-score of -0.0679. Cc1c(NC(=O)CSc2nnc(COc3ccccc3)n2-c2ccccc2)c(=O)n(-c2ccccc2)n1C was tested, and the z-score was -0.223. In the case of CC(C)(CNc1ccc([N+](=O)[O-])cc1Cl)CNS(C)(=O)=O, the z-score is reported as -0.224. Molecule CC1CCCC(C)N1CCNC(=O)Nc1ccc(Cl)cc1 (centres undefined) has a z-score of 1.09. COC(=O)C1(C)CCc2cc(OC)ccc2C1=O (centres undefined) showed a z-score of -0.225. Molecule O=C(Cn1ccc2ccccc2c1=O)NCC1COc2ccccc2O1 (centres undefined) has a z-score of 0.138. For O=C(N/N=C/c1cc(Br)ccc1O)C(=O)Nc1ccccc1OC(F)(F)C(F)F, the z-score was -0.416. For CCN(CC)CCn1c2ccc(Cl)cc2c2nc(C)sc21, the z-score was 0.617. O=C(NCc1ccco1)C1CCC(CNS(=O)(=O)c2cccc3cccnc23)CC1 (centres undefined) showed a z-score of 0.112.
